Results reported in the supplement of paper PMC11880418.
Counter-ions that a name gives are not always drawn. Some of the results follow. The data scatter; read single values as rough.

Tested on: T84
Assay: ALDHbr (CSC) cell proportion score relative to DMSO vehicle (ratio to DMSO); breast (SUM159) / gastric (MKN45) / pancreatic (PANC1) / colon cancer lines; ALDHbr cells have high ALDH activity and are rich in cancer stem cells (CSC); higher = more CSC (ALDHbr) cells remaining
Settings: 10 µM; 72 h
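Further: High-content imaging of ALDEFLUOR-stained cells with Hoechst-labelled nuclei in 384-well plates, triplicate wells, scored as Z-score against 0.1% DMSO vehicle, negative meaning fewer ALDHbr cells.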

SMILES	ALDHbr
N#Cc1cc(NC(=O)C(=O)O)c(Cl)c(NC(=O)C(=O)O)c1 [Lodoxamide]	0.979
CCOc1cc(CC(=O)N[C@@H](CC(C)C)c2ccccc2N2CCCCC2)ccc1C(=O)O [Repaglinide]	0.911
Nc1nc(NC2CC2)c2ncn([C@H]3C=C[C@@H](CO)C3)c2n1 [Abacavir Sulfate]	0.906
O=C(NCC1CCCCN1)c1cc(OCC(F)(F)F)ccc1OCC(F)(F)F (stereo not drawn) [Flecainide acetate]	0.837
OCc1cc(C(O)CNCCCCCCOCCCCc2ccccc2)ccc1O (stereo not drawn) [Salmeterol]	0.873
c1ccc(CNc2ncnc3nc[nH]c23)cc1 [Aminopurine, 6-benzyl]	0.842
Cc1cc(C(C)(C)C)cc(C)c1CC1=NCCN1 [Xylometazoline hydrochloride]	1.02
C[C@H](O)C(=O)Nc1c(I)c(C(=O)NC(CO)CO)c(I)c(C(=O)NC(CO)CO)c1I [Iopamidol]	1.24
CC(=O)CC(c1ccc([N+](=O)[O-])cc1)c1c(O)c2ccccc2oc1=O (stereo not drawn) [Acenocoumarol]	0.902
Cc1c(Cl)cccc1Nc1ncccc1C(=O)O [Clonixin Lysinate]	0.835
COc1ccc(CN2CCN(C(c3ccc(F)cc3)c3ccc(F)cc3)CC2)c(OC)c1OC [Lomerizine hydrochloride]	0.641
CNCCC=C1c2ccccc2C=Cc2ccccc21 [Norcyclobenzaprine]	0.627
CC[C@H]1OC(=O)C[C@@H](O)[C@H](C)[C@@H](O[C@@H]2O[C@H](C)[C@@H](O[C@H]3C[C@@](C)(O)[C@@H](O)[C@H](C)O3)[C@H](N(C)C)[C@H]2O)[C@@H](CC=O)C[C@@H](C)C(=O)/C=C/C(C)=C/[C@@H]1CO[C@@H]1O[C@H](C)[C@@H](O)[C@@H](OC)[C@H]1OC [Tylosin]	0.919
